# Data as given in the supplement of paper PMC8728848.
# Some of the results follow.
# B1: CLECb-Precomplexed (Mus musculus), P43025 (protein)
# chain: MAKNGLVLCILVVSLLLDQTDGYPSRMKARKHSKRRVKAKDDDLKSQVEKLWREVNALKEMQALQTVCLRGTKVHKKCYLASEGLKHYHEANEDCISKGGTLVVPRNSDEINALRDYGKRSLPGVNDFWLGINDMVTEGKFLDVHGFAVSFLNWDRAQPSGGKRENCVLFSQSAQGKWSDEACRSSKRYICEFIIPTRTRPLEQKLISEEDLAANDILDYKDDDDKV
# Legend:
# Test in all cases: glycan array binding signal (z-score within array); higher = stronger binding
# Settings in all cases: glycan notation: IUPAC condensed, linker removed
# [1] = molecular target: Gal(b1-3)GlcNAc(b1-6)[Gal(b1-3)]GalNAc
# Summary of the method: (§1)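 Glycan array data came from 3228 arrays in the Consortium for Functional Glycomics database, and only arrays with an available protein sequence were kept. Glycan names were put into IUPAC-condensed notation, and columns mapping to the same glycan were averaged. The binding signal is a within-array Z-score, averaged across arrays of one protein sequence run at different concentrations or buffers and across linkers. A negative Z-score can be read as non-binding.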
# [2] = molecular target: Gal(b1-3)GlcNAc6S
# Summary of the method: as §1
# [3] = molecular target: Gal(b1-3)[Fuc(a1-4)]GlcNAc
# Summary of the method: as §1
# [4] = molecular target: Gal(b1-3)[Fuc(a1-4)]GlcNAc(b1-2)Man
# Summary of the method: as §1
# [5] = molecular target: Gal(b1-3)[Fuc(a1-4)]GlcNAc(b1-2)Man(a1-3)[Gal(b1-3)[Fuc(a1-4)]GlcNAc(b1-2)Man(a1-6)]Man(b1-4)GlcNAc(b1-4)[Fuc(a1-6)]GlcNAc
# Summary of the method: as §1
# [6] = molecular target: Gal(b1-3)[Fuc(a1-4)]GlcNAc(b1-3)Gal(b1-3)[Fuc(a1-4)]GlcNAc
# Summary of the method: as §1
# [7] = molecular target: Gal(b1-3)[Fuc(a1-4)]GlcNAc(b1-3)Gal(b1-4)[Fuc(a1-3)]GlcNAc
# Summary of the method: as §1
# [8] = molecular target: Gal(b1-3)[Fuc(a1-4)]GlcNAc(b1-6)GalNAc
# Summary of the method: as §1
# [9] = molecular target: Gal(b1-3)[GlcNAc(b1-6)]GalNAc
# Summary of the method: as §1
# [10] = molecular target: Gal(b1-3)[Neu5Ac(a2-6)]GalNAc
# Summary of the method: as §1
# [11] = molecular target: Gal(b1-3)[Neu5Ac(a2-6)]GlcNAc(b1-4)Gal(b1-4)Glc
# Summary of the method: as §1
# [12] = molecular target: Gal(b1-3)[Neu5Ac(b2-6)]GalNAc
# Summary of the method: as §1
# [13] = molecular target: Gal(b1-4)Gal
# Summary of the method: as §1
# [14] = molecular target: Gal(b1-4)GalNAc(a1-3)[Fuc(a1-2)]Gal(b1-4)GlcNAc
# Summary of the method: as §1
# [15] = molecular target: Gal(b1-4)GalNAc(b1-3)[Fuc(a1-2)]Gal(b1-4)GlcNAc
# Summary of the method: as §1
# [16] = molecular target: Gal(b1-4)Glc
# Summary of the method: as §1
# [17] = molecular target: Gal(b1-4)Glc6S
# Summary of the method: as §1
# [18] = molecular target: Gal(b1-4)GlcNAc
# Summary of the method: as §1
# [19] = molecular target: Gal(b1-4)GlcNAc(a1-6)Gal(b1-4)GlcNAc
# Summary of the method: as §1
# [20] = molecular target: Gal(b1-4)GlcNAc(b1-2)Man
# Summary of the method: as §1
# [21] = molecular target: Gal(b1-4)GlcNAc(b1-2)Man(a1-3)Man(b1-4)GlcNAc(b1-4)GlcNAc
# Summary of the method: as §1
# [22] = molecular target: Gal(b1-4)GlcNAc(b1-2)Man(a1-3)[Gal(b1-4)GlcNAc(b1-2)Man(a1-6)]Man(b1-4)GlcNAc(b1-4)GlcNAc
# Summary of the method: as §1
# [23] = molecular target: Gal(b1-4)GlcNAc(b1-2)Man(a1-3)[Gal(b1-4)GlcNAc(b1-2)Man(a1-6)]Man(b1-4)GlcNAc(b1-4)[Fuc(a1-6)]GlcNAc
# Summary of the method: as §1
# [24] = molecular target: Gal(b1-4)GlcNAc(b1-2)Man(a1-3)[Gal(b1-4)GlcNAc(b1-2)Man(a1-6)][Gal(b1-4)GlcNAc(b1-4)]Man(b1-4)GlcNAc(b1-4)[Fuc(a1-6)]GlcNAc
# Summary of the method: as §1
# [25] = molecular target: Gal(b1-4)GlcNAc(b1-2)Man(a1-3)[Gal(b1-4)GlcNAc(b1-2)Man(a1-6)][GlcNAc(b1-4)]Man(b1-4)GlcNAc(b1-4)[Fuc(a1-6)]GlcNAc
# Summary of the method: as §1
# [26] = molecular target: Gal(b1-4)GlcNAc(b1-2)Man(a1-3)[GlcNAc(b1-2)Man(a1-6)]Man(b1-4)GlcNAc(b1-4)GlcNAc
# Summary of the method: as §1
# [27] = molecular target: Gal(b1-4)GlcNAc(b1-2)Man(a1-3)[GlcNAc(b1-4)][Gal(b1-4)GlcNAc(b1-2)Man(a1-6)]Man(b1-4)GlcNAc(b1-4)GlcNAc
# Summary of the method: as §1
# [28] = molecular target: Gal(b1-4)GlcNAc(b1-2)Man(a1-3)[Man(a1-6)]Man(b1-4)GlcNAc(b1-4)GlcNAc
# Summary of the method: as §1
# [29] = molecular target: Gal(b1-4)GlcNAc(b1-2)Man(a1-6)Man(b1-4)GlcNAc(b1-4)GlcNAc
# Summary of the method: as §1
# [30] = molecular target: Gal(b1-4)GlcNAc(b1-2)Man(a1-6)[GlcNAc(b1-2)Man(a1-3)]Man(b1-4)GlcNAc(b1-4)GlcNAc
# Summary of the method: as §1
# [31] = molecular target: Gal(b1-4)GlcNAc(b1-2)Man(a1-6)[Man(a1-3)]Man(b1-4)GlcNAc(b1-4)GlcNAc
# Summary of the method: as §1
# [32] = molecular target: Gal(b1-4)GlcNAc(b1-2)[Gal(b1-4)GlcNAc(b1-4)]Man(a1-3)[Gal(b1-4)GlcNAc(b1-2)Man(a1-6)]Man(b1-4)GlcNAc(b1-4)GlcNAc
# Summary of the method: as §1
# [33] = molecular target: Gal(b1-4)GlcNAc(b1-2)[Gal(b1-4)GlcNAc(b1-4)]Man(a1-3)[Gal(b1-4)GlcNAc(b1-2)[Gal(b1-4)GlcNAc(b1-6)]Man(a1-6)]Man(b1-4)GlcNAc(b1-4)GlcNAc
# Summary of the method: as §1
# [34] = molecular target: Gal(b1-4)GlcNAc(b1-2)[Gal(b1-4)GlcNAc(b1-4)]Man(a1-3)[GlcNAc(b1-4)][Gal(b1-4)GlcNAc(b1-2)Man(a1-6)]Man(b1-4)GlcNAc(b1-4)GlcNAc
# Summary of the method: as §1
# [35] = molecular target: Gal(b1-4)GlcNAc(b1-2)[Gal(b1-4)GlcNAc(b1-4)]Man(a1-3)[GlcNAc(b1-4)][Gal(b1-4)GlcNAc(b1-2)[Gal(b1-4)GlcNAc(b1-6)]Man(a1-6)]Man(b1-4)GlcNAc(b1-4)GlcNAc
# Summary of the method: as §1
# [36] = molecular target: Gal(b1-4)GlcNAc(b1-2)[Gal(b1-4)GlcNAc(b1-6)]Man(a1-6)[Gal(b1-4)GlcNAc(b1-2)Man(a1-3)]Man(b1-4)GlcNAc(b1-4)GlcNAc
# Summary of the method: as §1
# [37] = molecular target: Gal(b1-4)GlcNAc(b1-2)[Gal(b1-4)GlcNAc(b1-6)]Man(a1-6)[Gal(b1-4)GlcNAc(b1-2)Man(a1-3)]Man(b1-4)GlcNAc(b1-4)[Fuc(a1-6)]GlcNAc
# Summary of the method: as §1
# [38] = molecular target: Gal(b1-4)GlcNAc(b1-2)[Gal(b1-4)GlcNAc(b1-6)]Man(a1-6)[GlcNAc(b1-4)][Gal(b1-4)GlcNAc(b1-2)Man(a1-3)]Man(b1-4)GlcNAc(b1-4)GlcNAc
# Summary of the method: as §1
# [39] = molecular target: Gal(b1-4)GlcNAc(b1-2)[Gal(b1-4)GlcNAc(b1-6)]Man(a1-6)[GlcNAc(b1-4)][Gal(b1-4)GlcNAc(b1-2)[Gal(b1-4)GlcNAc(b1-4)]Man(a1-3)]Man(b1-4)GlcNAc(b1-4)[Fuc(a1-6)]GlcNAc
# Summary of the method: as §1
# [40] = molecular target: Gal(b1-4)GlcNAc(b1-3)Gal(b1-3)GalNAc
# Summary of the method: as §1
# [41] = molecular target: Gal(b1-4)GlcNAc(b1-3)Gal(b1-3)GlcNAc
# Summary of the method: as §1
# [42] = molecular target: Gal(b1-4)GlcNAc(b1-3)Gal(b1-4)Glc
# Summary of the method: as §1
# [43] = molecular target: Gal(b1-4)GlcNAc(b1-3)Gal(b1-4)GlcNAc
# Summary of the method: as §1
# [44] = molecular target: Gal(b1-4)GlcNAc(b1-3)Gal(b1-4)GlcNAc(b1-2)Man(a1-3)[Gal(b1-4)GlcNAc(b1-3)Gal(b1-4)GlcNAc(b1-2)Man(a1-6)]Man(b1-4)GlcNAc(b1-4)GlcNAc
# Summary of the method: as §1
# [45] = molecular target: Gal(b1-4)GlcNAc(b1-3)Gal(b1-4)GlcNAc(b1-2)Man(a1-3)[Gal(b1-4)GlcNAc(b1-3)Gal(b1-4)GlcNAc(b1-2)Man(a1-6)]Man(b1-4)GlcNAc(b1-4)[Fuc(a1-6)]GlcNAc
# Summary of the method: as §1
binder,measurement,setting,value
B1,glycan array binding signal (z-score),[1],-0.462
same,glycan array binding signal (z-score),[2],-0.23
same,glycan array binding signal (z-score),[3],-0.207
same,glycan array binding signal (z-score),[4],-0.166
same,glycan array binding signal (z-score),[5],2.08
same,glycan array binding signal (z-score),[6],0.004
same,glycan array binding signal (z-score),[7],-0.217
same,glycan array binding signal (z-score),[8],0.649
same,glycan array binding signal (z-score),[9],-0.229
same,glycan array binding signal (z-score),[10],-0.475
same,glycan array binding signal (z-score),[11],-0.333
same,glycan array binding signal (z-score),[12],-0.33
same,glycan array binding signal (z-score),[13],-0.428
same,glycan array binding signal (z-score),[14],-0.078
same,glycan array binding signal (z-score),[15],-0.119
same,glycan array binding signal (z-score),[16],-0.461
same,glycan array binding signal (z-score),[17],0.251
same,glycan array binding signal (z-score),[18],-0.28
same,glycan array binding signal (z-score),[19],0.922
same,glycan array binding signal (z-score),[20],-0.291
same,glycan array binding signal (z-score),[21],0.618
same,glycan array binding signal (z-score),[22],0.926
same,glycan array binding signal (z-score),[23],0.781
same,glycan array binding signal (z-score),[24],-0.085
same,glycan array binding signal (z-score),[25],-0.189
same,glycan array binding signal (z-score),[26],-0.209
same,glycan array binding signal (z-score),[27],0.142
same,glycan array binding signal (z-score),[28],-0.374
same,glycan array binding signal (z-score),[29],0.358
same,glycan array binding signal (z-score),[30],1.65
same,glycan array binding signal (z-score),[31],-0.062
same,glycan array binding signal (z-score),[32],-0.255
same,glycan array binding signal (z-score),[33],-0.178
same,glycan array binding signal (z-score),[34],-0.647
same,glycan array binding signal (z-score),[35],0.265
same,glycan array binding signal (z-score),[36],2.03
same,glycan array binding signal (z-score),[37],0.809
same,glycan array binding signal (z-score),[38],-0.071
same,glycan array binding signal (z-score),[39],-0.178
same,glycan array binding signal (z-score),[40],-0.561
same,glycan array binding signal (z-score),[41],-0.397
same,glycan array binding signal (z-score),[42],-0.229
same,glycan array binding signal (z-score),[43],-0.226
same,glycan array binding signal (z-score),[44],2.63
same,glycan array binding signal (z-score),[45],2.01
